Residue numbers refer to the chain shown, from its start. Names may count otherwise. Where two headings read alike, the source gives them in different places.

Experiment in all cases: flow cytometry, transfected cells
Background: A flow cytometer gives signals particle by particle.

For one test, the target named is T1, CD96 (UniProt P40200 22-585, limits assumed).
T1 construct: whole, on cells
T1 sequence (looked up): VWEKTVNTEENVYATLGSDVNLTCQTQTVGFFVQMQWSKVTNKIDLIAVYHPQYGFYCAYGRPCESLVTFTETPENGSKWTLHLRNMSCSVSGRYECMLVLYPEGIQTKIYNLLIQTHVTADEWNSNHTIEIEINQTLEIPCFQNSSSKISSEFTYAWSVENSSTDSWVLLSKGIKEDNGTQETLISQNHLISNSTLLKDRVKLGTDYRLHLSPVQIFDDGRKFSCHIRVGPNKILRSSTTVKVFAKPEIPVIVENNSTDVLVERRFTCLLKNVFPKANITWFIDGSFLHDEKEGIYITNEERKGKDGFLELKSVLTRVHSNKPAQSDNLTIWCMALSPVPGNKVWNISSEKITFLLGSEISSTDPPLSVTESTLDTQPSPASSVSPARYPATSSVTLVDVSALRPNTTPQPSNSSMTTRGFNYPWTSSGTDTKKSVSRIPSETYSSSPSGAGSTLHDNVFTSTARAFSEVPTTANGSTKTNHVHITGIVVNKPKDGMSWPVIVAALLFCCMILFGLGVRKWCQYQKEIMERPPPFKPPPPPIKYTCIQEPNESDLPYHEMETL

Test [1] deals with T2, human CD226 (human, UniProt Q15762 19-336).
T2 sequence: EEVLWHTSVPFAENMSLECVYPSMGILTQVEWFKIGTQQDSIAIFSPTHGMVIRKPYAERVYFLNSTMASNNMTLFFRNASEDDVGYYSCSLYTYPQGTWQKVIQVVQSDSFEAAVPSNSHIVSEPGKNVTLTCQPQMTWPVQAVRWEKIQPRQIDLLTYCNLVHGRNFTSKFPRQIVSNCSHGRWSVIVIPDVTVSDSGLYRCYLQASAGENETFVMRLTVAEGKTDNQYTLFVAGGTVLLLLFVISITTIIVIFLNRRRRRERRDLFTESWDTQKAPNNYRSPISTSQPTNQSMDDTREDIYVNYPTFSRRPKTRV

The target in test [2] is T3, human TIGIT (human, UniProt Q495A1 22-244).
T3 sequence: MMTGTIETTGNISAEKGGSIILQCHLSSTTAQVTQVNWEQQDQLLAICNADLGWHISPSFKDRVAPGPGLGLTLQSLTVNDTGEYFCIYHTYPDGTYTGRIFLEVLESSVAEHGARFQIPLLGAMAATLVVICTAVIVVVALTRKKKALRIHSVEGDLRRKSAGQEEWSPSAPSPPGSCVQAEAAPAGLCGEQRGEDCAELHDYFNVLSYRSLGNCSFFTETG

Test [3] addresses T2, human CD226. The source holds these as a separate data set.
The target of test [4] is T3, human TIGIT. This is another data set of the same source.

B1: Wild type CD155 IgV Fc fusion (Fc fusion)
chain: PGTGDVVVQAPTQVPGFLGDSVTLPCYLQVPNMEVTHVSQLTWARHGESGSMAVFHQTQGPSYSESKRLEFVAARLGAELRNASLRMFGLRVEDEGNYTCLFVTFPQGSRSVDIWLAAA[human IgG1 Fc with C220S R292C N297G V302C (EU numbers) not written out]
notes: also called unmodified CD155 IgV-Fc
For B1, the MFI in the test with CD96 amounted to 3080; in the test with human CD226 [1], 3720; with human TIGIT [2], 2720. The MFI parental ratio with CD96, with human CD226 [1] and with human TIGIT [2] was 1 in each case.

B2: CD155 IgV A81V, L83P Fc fusion (Fc fusion)
chain: B1 chain with A78V, L80P
Regarding B2, the MFI with CD96 stood at 2620; with human CD226 [1] it was 4170; in the test with human TIGIT [2], 2910. The MFI parental ratio in the test with CD96 worked out at 0.8; with human CD226 [1], 1.1; in the test with human TIGIT [2], 1.1.

B3: CD155 IgV P18T, F91S, R94H Fc fusion (Fc fusion)
chain: B1 chain with P15T, F88S, R91H
With B3, the values for the MFI with CD96, in the test with human CD226 [1] and with human TIGIT [2] were 2510, 3590 and 2940, respectively. The MFI parental ratio with CD96 was 0.8; with human CD226 [1], 1; in the test with human TIGIT [2] it was 1.1.

B4: CD112 IgV S118Y Fc fusion (Fc fusion)
chain: QDVRVQVLPEVRGQLGGTVELPCHLLPPVPGLYISLVTWQRPDAPANHQNVAAFHPKMGPSFPSPKPGSERLSFVSAKQSTGQDTEAELQDATLALHGLTVEDEGNYTCEFATFPKGYVRGMTWLAAA[human IgG1 Fc with C220S R292C N297G V302C (EU numbers) not written out]
With B4, the MFI with human CD226 [3] came to 2000; in the test with human TIGIT [4] it was 2920.
